Experimental findings from the supplement of paper PMC4604168 (melanoma cell lines) are described below.

The other results are listed elsewhere or left out. Single values are uncertain, as repeats are few or missing.
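Note: cell number obtained by counting DAPI-stained nuclei in high-throughput microscope images with image analysis software, screen run in 1,536-well plates.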

The first experiment relates to WM3526. The experiment in a line: cell count relative to DMSO control; melanoma cells; higher = more viable cells. Conditions: library dose: low library concentration; 72 h.
Consider `Cc1cc(Nc2cc(N3CCN(C)CC3)nc(Sc3ccc(NC(=O)C4CC4)cc3)n2)n[nH]1` [Tozasertib] + C[As](C)SC[C@H](NC(=O)CC[C@H](N)C(=O)O)C(=O)NCC(=O)O [Darinaparsin] (first compound 0.006 µM, partner dose 0.4 µM), for which the cell count was found to be 98.9%. On the same count and under the same terms, the result for `COc1ccc(COc2ccc(Cc3cnc(N)nc3N)cc2OC)cc1` + C/C(O)=C(\C#N)C(=O)Nc1cc(Br)ccc1Br [LFM-A13] (first compound 1 µM, partner dose 2 µM) reads 85.6%; that for `O=C(O)c1ccc2c(c1)nc(Nc1cccc(Cl)c1)c1ccncc12` + O=C(Oc1ccc([N+](=O)[O-])cc1)N1CCC(C(O)(c2ccc3c(c2)OCO3)c2ccc3c(c2)OCO3)CC1 [JZL184] (first compound 0.4 µM, partner dose 1 µM), 76.6%; that for `COc1ccc(COc2ccc(Cc3cnc(N)nc3N)cc2OC)cc1` + Cc1cc(SCc2sc(-c3ccc(C(F)(F)F)c(F)c3)nc2C)ccc1OCC(=O)O [GW0742] (first compound 1 µM, partner dose 2 µM), 121%. `Clc1ccc(Nc2nnc(Cc3ccncc3)c3ccccc23)cc1` [vatalanib] + C[As](C)SC[C@H](NC(=O)CC[C@H](N)C(=O)O)C(=O)NCC(=O)O [Darinaparsin] (first compound 2 µM, partner dose 0.4 µM) registered a cell count of 83%. The same measure, in the same setting: the result for `CC(C)C[C@H](NC(=O)[C@H](Cc1ccccc1)NC(=O)c1cnccn1)B(O)O` [Bortezomib] + N.N.[Cl][Pt][Cl] [cisplatin] (first compound 0.001 µM, partner dose 1.6 µM) reads 93.7%.

Another experiment has as its system WM3619. The description is as above. Conditions: library dose: low library concentration; 72 h.
The compound `O=C1NC(=O)/C(=C/c2ccc(-c3ccc(F)cc3O)o2)S1` + O=C(Oc1ccc([N+](=O)[O-])cc1)N1CCC(C(O)(c2ccc3c(c2)OCO3)c2ccc3c(c2)OCO3)CC1 [JZL184] (first compound 1 µM, partner dose 1 µM) displayed a cell count of 123%.

Compound `O=C(O)c1ccc2c(c1)nc(Nc1cccc(Cl)c1)c1ccncc12` + C[As](C)SC[C@H](NC(=O)CC[C@H](N)C(=O)O)C(=O)NCC(=O)O [Darinaparsin] (first compound 0.4 µM, partner dose 0.4 µM) yielded a cell count of 112%. Same read-out and setting: the value for `CN1CCN(c2ccc3nc(-c4c(N)c5c(F)cccc5[nH]c4=O)[nH]c3c2)CC1` [Dovitinib] + C/C(O)=C(\C#N)C(=O)Nc1cc(Br)ccc1Br [LFM-A13] (first compound 0.1 µM, partner dose 2 µM) was 84.5%; that for `O=C(O)c1ccc2c(c1)nc(Nc1cccc(Cl)c1)c1ccncc12` + Cc1cc(SCc2sc(-c3ccc(C(F)(F)F)c(F)c3)nc2C)ccc1OCC(=O)O [GW0742] (first compound 0.4 µM, partner dose 2 µM) was 99.4%. `CN1CCN(c2ccc3nc(-c4c(N)c5c(F)cccc5[nH]c4=O)[nH]c3c2)CC1` [Dovitinib] + C[As](C)SC[C@H](NC(=O)CC[C@H](N)C(=O)O)C(=O)NCC(=O)O [Darinaparsin] (first compound 0.1 µM, partner dose 0.4 µM) gave a cell count of 96.1%.

Compound `Cc1cc(Nc2cc(N3CCN(C)CC3)nc(Sc3ccc(NC(=O)C4CC4)cc3)n2)n[nH]1` [Tozasertib] + N.N.[Cl][Pt][Cl] [cisplatin] (first compound 0.006 µM, partner dose 1.6 µM) had a cell count of 99.9%. The compound `CN1CCN(c2ccc3nc(-c4c(N)c5c(F)cccc5[nH]c4=O)[nH]c3c2)CC1` [Dovitinib] + O=C(Oc1ccc([N+](=O)[O-])cc1)N1CCC(C(O)(c2ccc3c(c2)OCO3)c2ccc3c(c2)OCO3)CC1 [JZL184] (first compound 0.1 µM, partner dose 1 µM) displayed a cell count of 100%. On the same count and under the same terms, the result for `Clc1ccc(Nc2nnc(Cc3ccncc3)c3ccccc23)cc1` [vatalanib] + C/C(O)=C(\C#N)C(=O)Nc1cc(Br)ccc1Br [LFM-A13] (first compound 2 µM, partner dose 2 µM) reads 93.7%; that for `CC(C)C[C@H](NC(=O)[C@H](Cc1ccccc1)NC(=O)c1cnccn1)B(O)O` [Bortezomib] + C[As](C)SC[C@H](NC(=O)CC[C@H](N)C(=O)O)C(=O)NCC(=O)O [Darinaparsin] (first compound 0.001 µM, partner dose 0.4 µM), 38.2%; that for `Cc1cc([N+](=O)[O-])ccc1NS(=O)(=O)c1cc(Cl)ccc1Cl` + O=C(Oc1ccc([N+](=O)[O-])cc1)N1CCC(C(O)(c2ccc3c(c2)OCO3)c2ccc3c(c2)OCO3)CC1 [JZL184] (first compound 1 µM, partner dose 1 µM), 102%. On to `Cc1cc(Nc2cc(N3CCN(C)CC3)nc(Sc3ccc(NC(=O)C4CC4)cc3)n2)n[nH]1` [Tozasertib] + Cn1cc(C2=C(c3cn(C4CCN(Cc5ccccn5)CC4)c4ccccc34)C(=O)NC2=O)c2ccccc21 [Enzastaurin] (first compound 0.006 µM, partner dose 0.8 µM), for which the cell count is 85.9%.

`Cc1cc(Nc2cc(N3CCN(C)CC3)nc(Sc3ccc(NC(=O)C4CC4)cc3)n2)n[nH]1` [Tozasertib] + O=C(Oc1ccc([N+](=O)[O-])cc1)N1CCC(C(O)(c2ccc3c(c2)OCO3)c2ccc3c(c2)OCO3)CC1 [JZL184] (first compound 0.006 µM, partner dose 1 µM) displayed a cell count of 107%. Still for that read-out and setting: the result for `Oc1cc(-c2nc(-c3ccccc3)[nH]c2-c2ccncc2)ccc1Cl` + C/C(O)=C(\C#N)C(=O)Nc1cc(Br)ccc1Br [LFM-A13] (first compound 0.2 µM, partner dose 2 µM) reads 106%; that for `O=C(O)C(=O)Nc1sc2c(c1C(=O)O)CCNC2` + O=C(Oc1ccc([N+](=O)[O-])cc1)N1CCC(C(O)(c2ccc3c(c2)OCO3)c2ccc3c(c2)OCO3)CC1 [JZL184] (first compound 1.66667 µM, partner dose 1 µM), 116%. On the same count and under the same terms, the result for `C#Cc1cccc(Nc2ncnc3cc(OCCOC)c(OCCOC)cc23)c1` [erlotinib] + C[As](C)SC[C@H](NC(=O)CC[C@H](N)C(=O)O)C(=O)NCC(=O)O [Darinaparsin] (first compound 0.8 µM, partner dose 0.4 µM) reads 89.3%; that for `Clc1ccc(Nc2nnc(Cc3ccncc3)c3ccccc23)cc1` [vatalanib] + O=C(Oc1ccc([N+](=O)[O-])cc1)N1CCC(C(O)(c2ccc3c(c2)OCO3)c2ccc3c(c2)OCO3)CC1 [JZL184] (first compound 2 µM, partner dose 1 µM), 75.8%; that for `COc1cc2ncnc(Nc3ccc(Oc4ccccc4)cc3)c2cc1OC` + O=C(Oc1ccc([N+](=O)[O-])cc1)N1CCC(C(O)(c2ccc3c(c2)OCO3)c2ccc3c(c2)OCO3)CC1 [JZL184] (first compound 2 µM, partner dose 1 µM), 102%. Same read-out and setting: the result for `Nc1ccn([C@@H]2O[C@H](CO)[C@@H](O)C2(F)F)c(=O)n1` [gemcitabine] + C[As](C)SC[C@H](NC(=O)CC[C@H](N)C(=O)O)C(=O)NCC(=O)O [Darinaparsin] (first compound 0.0004 µM, partner dose 0.4 µM) reads 71.8%; that for `CC(C)C[C@H](NC(=O)[C@H](Cc1ccccc1)NC(=O)c1cnccn1)B(O)O` [Bortezomib] + O=C(Oc1ccc([N+](=O)[O-])cc1)N1CCC(C(O)(c2ccc3c(c2)OCO3)c2ccc3c(c2)OCO3)CC1 [JZL184] (first compound 0.001 µM, partner dose 1 µM), 2.76%. In the case of `c1cc(-c2cnn3cc(-c4ccc(OCCN5CCCCC5)cc4)cnc23)ccn1` [Dorsomorphin] + O=C(Oc1ccc([N+](=O)[O-])cc1)N1CCC(C(O)(c2ccc3c(c2)OCO3)c2ccc3c(c2)OCO3)CC1 [JZL184] (first compound 0.4 µM, partner dose 1 µM), the cell count came to 104%.

`Oc1cc(-c2nc(-c3ccccc3)[nH]c2-c2ccncc2)ccc1Cl` + O=C(Oc1ccc([N+](=O)[O-])cc1)N1CCC(C(O)(c2ccc3c(c2)OCO3)c2ccc3c(c2)OCO3)CC1 [JZL184] (first compound 0.2 µM, partner dose 1 µM) showed a cell count of 116%. Compound `Nc1ccn([C@@H]2O[C@H](CO)[C@@H](O)C2(F)F)c(=O)n1` [gemcitabine] + C/C(O)=C(\C#N)C(=O)Nc1cc(Br)ccc1Br [LFM-A13] (first compound 0.0004 µM, partner dose 2 µM) displayed a cell count of 69.7%. Same read-out and setting: the value for `CC(C)C[C@H](NC(=O)[C@H](Cc1ccccc1)NC(=O)c1cnccn1)B(O)O` [Bortezomib] + C/C(O)=C(\C#N)C(=O)Nc1cc(Br)ccc1Br [LFM-A13] (first compound 0.001 µM, partner dose 2 µM) was 23.2%. On the same count and under the same terms, the value for `CO[C@H]1C[C@@H]2CC[C@@H](C)[C@@](O)(O2)C(=O)C(=O)N2CCCC[C@H]2C(=O)O[C@H]([C@H](C)C[C@@H]2CC[C@@H](OCCO)[C@H](OC)C2)CC(=O)[C@H](C)/C=C(\C)[C@@H](O)[C@@H](OC)C(=O)[C@H](C)C[C@H](C)/C=C/C=C/C=C/1C` [everolimus] + Cc1cc(SCc2sc(-c3ccc(C(F)(F)F)c(F)c3)nc2C)ccc1OCC(=O)O [GW0742] (first compound 0.02 µM, partner dose 2 µM) was 113%; that for `Nc1ccn([C@@H]2O[C@H](CO)[C@@H](O)C2(F)F)c(=O)n1` [gemcitabine] + O=C(Oc1ccc([N+](=O)[O-])cc1)N1CCC(C(O)(c2ccc3c(c2)OCO3)c2ccc3c(c2)OCO3)CC1 [JZL184] (first compound 0.0004 µM, partner dose 1 µM) was 78.7%.
